Results reported in PubChem BioAssay AID1347073 (National Center for Advancing Translational Sciences (NCATS), 2019).
Hit rate of the full screen: of about 45,000 compounds, about 200 (0.44%) were called active. Inconclusive results (about 7%) are left out. Calls follow the shape of the dose curve; as a rule, active = well fitted activation curve with a large enough effect; inconclusive = small, poorly fitted or top-dose-only effect; inactive = no such curve, though single readings can be large or run the other way. This is one part of the list.

test: qHTS of TDP-43 Inhibitors: NCGC Sytravon Library Screen; settings: yeast TDP-43 toxicity rescue, BacTiter-Glo growth, 24 h; series mostly up to 46.1 µM; growth rescue (activation): at the top concentration; also: 0% is about no effect; nearly all actives have a fitted effect of over 55% in size
How it was run: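 TDP-43-expressing yeast, pregrown in raffinose, seeded at OD600 0.02 in galactose medium with compound for 24 hr at 30 deg C. Growth read by BacTiter-Glo luminescence, so rescue of toxicity appears as activation.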

Row | SMILES | growth rescue (activation)
1 | Cc1cc(C)nc(NC(=O)c2ccc(COc3ccccc3Cl)cc2)c1 | inactive: 25%
2 | CCOCCCNc1nc(C)nc2c1nnn2Cc1c(F)cccc1Cl | inactive: 25.5%
3 | CSc1ccccc1OCc1cc(C(=O)NCCn2ccnc2C)no1 | inactive: 5.68%
4 | COc1cc(OC)c(NS(=O)(=O)c2cccc(C(=O)OCC(=O)NCC3CCCO3)c2)cc1Cl (stereo not drawn) | inactive: 2.62%
5 | CCCC(=O)N1CCCC1(C)C(=O)Nc1ccc2cn[nH]c2c1 (stereo not drawn) | inactive: -2.02%
6 | Cc1ccc(-c2nc3ccccc3s2)cc1NC(=S)NC(=O)c1cccc2ccccc12 | inactive: 5.63%
7 | Cc1ccc(NS(=O)(=O)c2ccc(CCC(=O)NCc3cccnc3)cc2)cc1 | inactive: -4.53%
8 | Cc1cc(C)cc(N(C(=O)c2sc(C)nc2C)C(C(=O)NC(C)(C)C)c2ccncc2)c1 (stereo not drawn) | inactive: -8.52%
9 | Cc1ccc(N(C(=O)CNC(=O)c2ccco2)C(C(=O)NC2CCCCC2)c2cccnc2)c(C)c1 (stereo not drawn) | inactive: -35.3%
10 | Cc1cc(C)c2c(N)c(C(=O)NNC(=O)c3ccccc3)sc2n1 | inactive: 18.8%
11 | CC1(C(=O)Nc2ccc3c(c2)OCO3)CCN1Cc1ccccc1OC(F)F (stereo not drawn) | inactive: 17.2%
12 | O=C(CN1CCCC1)Nc1ccc(Cl)cc1C(F)(F)F | inactive: -9.9%
13 | Cc1cc(-c2nn(-c3ccccc3F)cc2CN2CCN(c3ccncc3)CC2)c(C)s1 | inactive: 4.63%
14 | Cc1ccc(/C=N/n2c(-c3cccc(Cl)c3)n[nH]c2=S)o1 | inactive: 7.23%
15 | COC(=O)c1ccc(C(=S)N2CCCCC2)cc1 | inactive: 18.2%
16 | Cc1nc(C(F)(F)F)nc(Nc2ccc(N=Nc3ccccc3)cc2)c1C#N | inactive: 11%
17 | O=[N+]([O-])c1ccc(Cl)cc1CN1CCCCCC1 | inactive: -7.92%
18 | COCc1ccc(C(=O)N2CCCC(C(=O)c3ccc(SC)cc3)C2)o1 (stereo not drawn) | inactive: 11.3%
19 | COc1ccc(OC)c(S(=O)(=O)n2cnc3ccccc32)c1 | inactive: -5.26%
20 | CC(C)(CO)Nc1ccc([N+](=O)[O-])cc1[N+](=O)[O-] | inactive: 3.91%
21 | O=[N+]([O-])c1ccc(N2CCN(c3ccc(F)cc3)CC2)cn1 | inactive: 37.7%
22 | O=C(c1cc2cc(Br)ccc2[nH]1)N1CCc2ccccc21 | inactive: 24.3%
23 | N#Cc1cccc2cnccc12 | inactive: 11.7%

Row | SMILES | growth rescue (activation)
24 | C/C=C/c1ccc(OCCCCOc2ccccc2F)c(OC)c1 | inactive: 14.5%
25 | Cc1ccc(Cn2c3ccccc3c3cnn(CC(=O)Nc4cc(Cl)ccc4C)c(=O)c32)cc1 | inactive: 7.37%
26 | O=C(/C=C\NCC(=O)c1ccccc1)c1ccc2ccccc2c1 | inactive: -6.39%
27 | CCc1nn(CCCC(=O)NCc2ccc(OC(C)C)cc2)c(=O)c2cc3occc3n12 | inactive: 6.67%
28 | C=C(C)COc1ccc(-c2[nH]ncc2-c2ccccc2)c(O)c1 | inactive: 3.48%
29 | CCCC(=O)c1c(NCCO)cc(C)oc1=O | inactive: -18.7%
30 | COc1ccc(CN(C)CC(=O)Nc2ccccc2C(F)(F)F)cc1 | inactive: 5.73%
31 | COc1ccc2[nH]c(=O)c(CN(CC3CCCO3)S(=O)(=O)c3ccccc3F)cc2c1 (stereo not drawn) | inactive: -6.81%
32 | CC(C(=O)NC1C(=O)N2C(C(=O)O)=C(CSc3nnnn3C)CSC12)n1cc(Cl)cn1 (stereo not drawn) | inactive: -4.54%
33 | COc1ccc(/C=C(/NC(=O)c2ccccc2)C(=O)NCC2CCCO2)cc1 (stereo not drawn) | inactive: -0.868%
34 | Cc1cc(NC(=O)CN2CCCC(C)C2)n(-c2nc3ccccc3s2)n1 (stereo not drawn) | inactive: 26.3%
35 | O=C1CCCC2=C1C(c1ccc(O)c(Br)c1)C1=C(CCCC1=O)N2c1ccccc1 | inactive: -6.39%
36 | CCc1nc(SCC(=O)Nc2nnc(C(C)C)s2)n[nH]1 | inactive: 4.81%
37 | Cc1ccn2c(C(=O)N/N=C\c3ccc4c(c3)OCO4)c(C)nc2c1 | inactive: 15.6%
38 | O=C(COC(=O)c1c[nH]c2ccccc12)Nc1ccccc1 | inactive: 8.28%
39 | CCN(CC)S(=O)(=O)c1cc(NC(=O)C(C)N2CCN(c3ccccn3)CC2)ccc1C (stereo not drawn) | inactive: 2.08%
40 | CCCc1nc2ccc(NC(=O)NCCC(=O)OCC)cc2c(=O)n1Cc1cccc(Cl)c1 | inactive: -3.08%
41 | CC(=O)Nc1ccc(NC(=O)COC(=O)c2cc(S(=O)(=O)N3CCCC3)ccc2O)cc1 | inactive: -3.82%
42 | COc1cc2[nH]c(=O)n(CCCC(=O)NCCc3ccccc3)c(=O)c2cc1OC | inactive: 20.3%
43 | CCCCOCCCNC(=O)CC(C)c1ccccc1 (stereo not drawn) | inactive: 29.1%
44 | O=C1c2ccccc2NC(c2ccc([N+](=O)[O-])cc2)N1O (stereo not drawn) | inactive: -43.4%
45 | CC(=O)c1ccc(NC(=S)N2CCN(CCN3C(=O)c4cccc5cccc(c45)C3=O)CC2)cc1 | inactive: -20.4%
46 | O=C1CC(N2CCN(c3ncccn3)CC2)C(=O)N1CCc1ccccc1 (stereo not drawn) | inactive: -6.3%

Row | SMILES | growth rescue (activation)
47 | COC(=O)c1cc(Cl)c(NC(=O)/C=C/c2ccc(OC)cc2)cc1OC | inactive: 0.714%
48 | O=c1cnnc(Nc2ccccc2)[nH]1 | inactive: 4.03%
49 | Cc1ccccc1OCC(=O)OCC(=O)NC1CCCCCC1 | inactive: 12.7%
50 | COc1ccccc1CC1(C)C(=O)Nc2ccc(OC(F)(F)F)cc21 (stereo not drawn) | inactive: -16.1%
51 | O=S(=O)(N=C(NS(=O)(=O)c1ccc(Cl)cc1)c1ccccc1)c1ccc(Cl)cc1 | inactive: 15.6%
52 | Cc1[nH]nc(S(=O)CC(=O)O)c1[N+](=O)[O-] (stereo not drawn) | inactive: 0.742%
53 | COC(=O)Cc1ccc(NC(=S)N2CCN(c3cccc(O)c3)CC2)cc1 | inactive: 4.02%
54 | CC(C)c1ccc(C(=O)NNC(=O)c2ccncc2)cc1 | inactive: 19.6%
55 | O=C(O)COc1ccc(/C=N/Nc2nc(Nc3ccccc3)nc(N3CCCCC3)n2)cc1 | inactive: -8.41%
56 | CCOc1ccc(/C(O)=C2/C(=O)C(=O)N(CCN(C)C)C2c2ccccc2)cc1Cl (stereo not drawn) | inactive: 13.1%
57 | Cc1ccc(CN2CCSc3ccc(C(=O)NC4CCN(Cc5ccccc5)CC4)cc32)cc1 | inactive: 7.78%
58 | N=c1c(C(=O)NC2CCCCC2)cc2c(=O)n3ccccc3nc2n1Cc1ccco1 | inactive: -5.13%
59 | CC(=O)Nc1ccc(NC(=O)C2CCN(C(=O)c3ccc([N+](=O)[O-])cc3)CC2)cc1 | inactive: -5.53%
60 | COc1ccccc1CNC(=O)CCc1cn(C)c2ccccc12 | inactive: 22.4%
61 | NS(=O)(=O)c1ccc(NC(=S)N2CCN(Cc3ccc4c(c3)OCO4)CC2)cc1 | inactive: -7.7%
62 | COc1cc(C2C3=C(CCCC3=O)Nc3[nH]n(-c4ccccc4)c(=O)c32)ccc1OC(C)=O (stereo not drawn) | inactive: 7.54%
63 | CNc1cc(-c2c(OC)cccc2OC)ncn1 | inactive: -5.44%
64 | Cc1ccc(S(=O)(=O)Nc2ccccc2)cc1C(=O)N1CCCC1 | inactive: 8.79%
65 | CCOc1ccccc1C1NC(=O)NC(C)=C1C(=O)OC1CCCC1C (stereo not drawn) | inactive: -11.7%
66 | COc1ccc(/C=N/NC(=O)CNc2ccc(Br)cc2)c(C(=O)O)c1OC | inactive: 2.2%
67 | CCC(CO)NCc1sccc1C (stereo not drawn) | inactive: 7.06%
68 | Cc1cc(Cc2ccc(N)c(C)c2)ccc1N | inactive: 5.71%
